Data published in article PMC12040169 (PLOS Biology, 2025).
The other results are listed elsewhere or left out.

Each compound was assayed on T1, C. trachomatis L2/434/Bu expressing GFP (CTL2-GFP). Conditions: total inclusion area; 28.5 h, 10 µM; inhibitor.
T1 construct: L2/434/Bu GFP intracellular growth in HeLa cells
Design: species or system HeLa; C. trachomatis total inclusion area by high-content imaging, normalised to DMSO
Summary of the method: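 Post-fluorescence-read fixation, DNA staining with Hoechst and high-content imaging; GFP inclusion area and number per well, and nuclei counts, used as proxies for bacterial growth and host viability.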

Structure (SMILES)	% of control remaining
Cc1ccn(CCNC(=O)c2cc(-c3cccs3)no2)n1 [CBK282679]	119.061
CN(C)c1cccc(-c2cncc(NCCCO)n2)c1 [CBK065619]	66.3923
CSc1nc(C)c(CCC(=O)Nc2ccc(N3CC(C)OC(C)C3)nc2)c(C)n1 (centres unmarked) [CBK298266]	100.563
O=C(O)C(c1c[nH]c2ccccc12)N1CCc2ccccc2C1 (centres unmarked) [CBK286664]	63.46
COc1cc(C(C[N+](=O)[O-])c2c(C)[nH]c3ccccc23)ccc1O (centres unmarked) [CBK115317]	97.1952
CC(C)C(=O)NCCn1nc(-c2ccccc2F)cc1CN(C)C [CBK281693]	94.9767
CCn1nc(C)c(-c2cncn2Cc2ccccc2CN(C)C)c1C [CBK281998]	94.1954
COc1ccc2c3c(cc(Cl)cc13)CC(N)C2 (centres unmarked) [CBK016450C]	45.5037
CCNC(=O)Nc1c[nH]nc1C1CCCN(c2cccc(F)c2C#N)C1 (centres unmarked) [CBK306406]	77.7888
Cc1nn(-c2ccccn2)c(C)c1[C@@H]1C=C[C@@H](NS(C)(=O)=O)C1 [CBK289169]	117.241
CC(=O)Nc1cccc(NC(=O)c2ccc(CN3CCCCC3)cc2)c1 [CBK295596]	101.363
CC(=O)Nc1ccc(S(=O)(=O)N2CCCCC2C(=O)O)cc1 (centres unmarked) [CBK265241]	72.1237
FC(F)(F)c1ccc(SCc2ccc(Cl)c(Cl)c2)nc1 [CBK103713]	82.0116
Cc1nc(NC(=O)Cn2nc(N3CCSCC3)ccc2=O)sc1C [CBK307622]	84.8755
COC(=O)c1cc(=O)c2ccccc2o1 [CBK000064]	32.3596
COc1ccc(-n2c(=O)[nH]cc(C(=O)Nc3cc(C)ccc3OC)c2=O)cc1 [CBK287548]	82.1585
N/C(=N\OC(=O)c1cc(-c2ccccc2)nc2ccccc12)c1cccnc1 [CBK265106]	136.031
CC(C)(C)OC(=O)N1CCC(Oc2nccnc2Cl)CC1 [CBK067386]	107.41
CCSc1nnnn1-c1cccc(NC(C)=O)c1 [CBK305511]	31.8278
O=C(c1ccncc1)N1CCCCC1c1nc2ccccc2[nH]1 (centres unmarked) [CBK281641]	108.235
COc1ccc(S(=O)(=O)N2CCSC2)cc1C [CBK097882]	93.2856

Structure (SMILES)	% of control remaining
COC(=O)[C@H]1CCc2ccccc2N1C(C)=O [CBK284256]	90.2395
CCN(CC)C(=O)/C=C/c1ccc(C(C)C)cc1 [CBK149636]	94.2534
O=C(c1ccccc1Cl)c1cc(Cl)ccc1-n1ccnc1 [CBK005151]	80.1634
Cc1ccc(COc2ccc(/C=N/NC(=O)CN3CCCCC3)cc2)cc1 [CBK262227]	78.9905
O=C(NCCc1nc2ccccc2[nH]1)Nc1ccccc1 [CBK261803]	92.2153
CC(Oc1ccc(Br)cc1Cl)C(=O)NCCCN1CCCC1=O (centres unmarked) [CBK268138]	76.5397
N#CC1=C(SCc2ccccc2)SC(c2ccc(O)c(O)c2)NC1=O (centres unmarked) [CBK293972]	68.095
Cc1cc2c(cc3c(=O)n(CCN4CCCC4)nc(C)n32)s1 [CBK284126]	75.9447
COc1cc2cc(C(=O)N3CCN(Cc4ccc5c(c4)OCO5)CC3)c(=O)oc2cc1OC [CBK074790]	84.0231
CN(C)CC(C)(C)CNC1CCN(C)CC1 [CBK261926]	105.594
Cc1nc(CCCn2cnc3cnccc3c2=O)sc1C [CBK306610]	54.2768
O=C(NCCc1ccccc1)Nc1cc2cccnc2c(Br)n1 [CBK063283]	54.2928
O=S(=O)(c1cccc2nsnc12)N1CCCN(Cc2ccsc2)CC1 [CBK038570]	95.2673
Fc1ccc(OCCNCCC2NCCc3c2[nH]c2ccccc32)cc1 (centres unmarked) [CBK066970]	95.8102
COc1ccc(-n2ncc(-c3ccc(C(F)(F)F)cc3)n2)cc1 [CBK112688]	107.798
Cc1cc(=O)n2c(-c3ccc(NS(=O)(=O)c4cccnc4)cc3)csc2n1 [CBK287837]	113.107
Cc1ccc(C(C)C)c(OCC(=O)Nc2ccc(F)c([N+](=O)[O-])c2)c1 [CBK263771]	66.9523
O=C(NCCCN1CCOCC1)c1ccc(/C=N/O)nc1 [CBK264468]	113.231
Cn1cc(-c2nc(C3COCCN3Cc3ccc(F)cc3)no2)cn1 (centres unmarked) [CBK305391]	64.9717
NC(=O)c1ccc(-c2cncc(N3CCN(CCO)CC3)n2)cc1 [CBK065392]	98.5828
O=C(NCCn1cccn1)c1ncoc1-c1ccc(F)cc1 [CBK282355]	107.031

Structure (SMILES)	% of control remaining
CCN1CC2(CCNCC2)c2ccccc21 [CBK116520]	112.544
CN(C)CC(O)c1cc2n(n1)CCCN(CC(=O)NCc1cccs1)C2 (centres unmarked) [CBK306738]	102.16
CCc1nn(CC(=O)N(C)C)c(=O)c2cc3oc(C)cc3n12 [CBK283576]	115.374
CNC(=O)Nc1ccccc1NC(=O)NC [CBK261401]	105.116
O=C1NC(=O)C(CC(=O)N2CCC3(CC2)CC(=O)c2cc(Cl)ccc2O3)N1 (centres unmarked) [CBK156485]	82.1597
C=CCn1c(Cc2csc(NC(=O)c3cc(C)cc(C)c3)n2)n[nH]c1=S [CBK295358]	90.3807
CO[C@H]1CC[C@H](C(=O)NC(Cc2ccsc2)c2cccnc2)CC1 (some centres unmarked) [CBK285114]	93.3056
Nc1nnc(SCC(=O)NCc2ccc3c(c2)OCO3)s1 [CBK267853]	120.742
O=C(CCn1cnc2ccccc2c1=O)Nc1ccc(Cl)c(Cl)c1 [CBK266738]	94.5923
O=C1c2ccccc2C(=O)N1CCCc1nn2c(-c3cccnc3)nnc2s1 [CBK270140]	95.1879
CC(C)(C)OC(=O)NCc1ccc(-c2nnc(CC(=O)O)o2)cc1 [CBK169899D]	110.287
Cc1ccc(C2SCC(C(=O)O)N2C(=O)c2cccc(Cl)c2)cc1 (centres unmarked) [CBK286931]	132.012
CC(=O)NCCOc1nccnc1OCc1ccc(Cl)c(Cl)c1 [CBK161582]	88.8492
COc1ccc(CNc2cncc(-c3ccc(C(C)C)cc3)n2)cc1 [CBK065514]	108.304
CN(C)CCN(Cc1ccccc1)C(=O)NCc1ccc(Cl)cc1 [CBK155106]	85.5992
CCOC(=O)c1[nH]c2ccccc2c1NC(=O)[C@@H]1CCCN1C [CBK160171T]	82.1032
Nc1nnc(Sc2ccc([N+](=O)[O-])c3nonc23)s1 [CBK266712]	52.7351
O=C(NCCc1c[nH]cn1)NC1CCCCC1 [CBK269975]	76.606
N#Cc1c(CN2CCCC(c3noc(C4CC4)n3)C2)cn2ccccc12 (centres unmarked) [CBK305332]	23.1197
COc1ccccc1C(=O)NCC(=O)N/N=C/c1ccc(N(C)C)cc1 [CBK261989]	88.7126
CN(C)c1nc(NCc2ccccc2)nc(SCC(=O)Nc2ccccc2)n1 [CBK268810]	88.2622

Structure (SMILES)	% of control remaining
COc1cc(OC)nc(CN2C(=O)C3(CC(=O)N(C)C3=O)c3cc(F)ccc32)n1 (centres unmarked) [CBK075475]	94.3664
Cc1nccn1CCCNC(=O)c1ccc(N2CCCC2)cc1 [CBK281589]	81.5477
Cc1ccc(OCCNC(=O)C(C)Cn2cccn2)cc1 (centres unmarked) [CBK283252]	82.1722
Cc1cc(C)c2c(c1)C1(C(=O)N2)C(C#N)=C(N)Oc2[nH]nc(-c3ccccc3)c21 (centres unmarked) [CBK267367]	111.724
CC(C)(C)c1ccc([S+]([O-])c2cncc(N3CCNCC3)n2)cc1 (centres unmarked) [CBK051434C]	82.7651
CCOC(=O)c1ccc(N2C(=O)CC(N3CCN(c4cccc(OC)c4)CC3)C2=O)cc1 (centres unmarked) [CBK265396]	110.935
CC(C)c1nn(CN(C)Cc2ccccc2)c(=S)[nH]1 [CBK295166]	104.27
CN1CCC(Oc2nc3ccccc3nc2C(F)(F)F)CC1 [CBK113299]	84.0808
CNC(=O)c1ccc(OC)c(S(=O)(=O)NC)c1 [CBK270153]	89.6106
Cc1nccn1CC(=O)N1CCCC(C)(C(=O)NC2CCCC2)C1 (centres unmarked) [CBK282210]	102.208
O=C1C2C3C=CC(C3)C2C(=O)N1CCNCCO (centres unmarked) [CBK264414]	100.688
Cc1ccc(Cn2c(=N)n(CC(=O)c3cc(C(C)(C)C)c(O)c(C(C)(C)C)c3)c3ccccc32)cc1 [CBK262458B]	13.2548
CCOc1ccc(N(CC(=O)O)S(=O)(=O)c2ccc(SC)cc2)cc1 [CBK263764]	105.998
Cn1c(=O)c(C(N)=O)c(O)c2ccccc21 [CBK027440]	94.4225
CCNC(=O)C1(Cc2ccc(-c3cccs3)cc2)CCN(C(=O)c2ccccc2)CC1 [CBK285794]	129.878
CN(C)CCCOC(=O)CN1c2ccccc2CCc2ccccc21 [CBK022863C]	59.3906
c1cncc(-c2cc(NCCc3ccncc3)ncn2)c1 [CBK037716]	88.4374
c1ccc(CCCNc2ncc(-c3ccc(N4CCOCC4)cc3)n3ccnc23)cc1 [CBK091223]	97.5678
CC(C)(C)c1cc(CN2CCCCC2)c(C(=O)O)o1 [CBK266556C]	117.898
O=c1c2c(nc(SCCc3ccccc3)n1CCc1ccccc1)-c1ccccc1CC21CCCCC1 [CBK262661]	101.124
